Experimental data reported in US20140120555A1 (PIERRE FABRE MEDICAMENT, published 2014).

Assays:
chimeric antibody c515H7 [1] = biological target: T1, chimeric antibody c515H7; assay: SPR (Biacore X): h-FcγRIIIA injected over c515H7 Mab immobilized on a CM4 sensorchip; heterogeneous ligand model, major component (81%)
T1 construct: Human IgG1/kappa constant domains; also called c515H7 Mab; chimeric 515H7
Experimental: (§1) 2017 RU of c515H7 Mab were immobilized using the amine coupling kit chemistry on the second flowcell (FC2) of a CM4 sensorchip. The first flowcell (FC1) activated by NHS and EDC mixture and des-activated by ethanolamine served as the reference surface to check and subtract the non specific interaction between the analyte (Fc gamma receptors) and the sensorchip matrix.
(§2) The kinetic experiments were carried out at 25° Celsius at a flow rate of 30 μl/min. The HBS-EP buffer was used either as the running buffer or for the preparation of analyte solutions. The analyte solutions were injected during 90 seconds (association phase) with a 90 seconds delay (dissociation phase). An injection of running buffer as analyte was used as a double reference. All the sensorgrams were corrected by this double reference sensorgram.
(§3) After each injection of the analyte, the sensorchip was regenerated by injection of 20 mM NaOH, 75 mM NaCl solution.

[2] = biological target: T2, humanized antibody Hz515H7 VH1 D76N VL2; assay: SPR (Biacore X): h-FcγRIIIA injected over hz515H7VH1D76NVL2 Mab immobilized on a CM4 sensorchip; heterogeneous ligand model, minor component (21%)
T2 construct: IgG1/kappa; also called hz515H7VL2; hz515H7-1
Experimental: as §1, with “1964” for “2017”, “hz515H7VH1D76NVL2” for “c515H7”
as §2
(§4) Sensorgrams obtained with h-FcγRIIIA [FIG. 16] were clearly not fitted by the Langmuïr model (Chi2/Rmax>20%). […] According to this model, the hz515H7VH1D76NVL2 Mab Fc domain may be regarded as a mixture of two components. […] According to the literature, the heterogeneity observed with h-FcγRIIIA was probably linked to the glycosylation heterogeneity on the Mab Fc domain.

chimeric antibody c515H7 [3] = biological target: T1, chimeric antibody c515H7; assay: SPR (Biacore X): h-FcγRIIIA injected over c515H7 Mab immobilized on a CM4 sensorchip; Langmuir model
Experimental: as §1, §2, §3

[4] = biological target: T2, humanized antibody Hz515H7 VH1 D76N VL2; assay: SPR (Biacore X): h-FcγRIIIA injected over hz515H7VH1D76NVL2 Mab immobilized on a CM4 sensorchip; heterogeneous ligand model, major component (79%)
Experimental: as §1, with “1964” for “2017”, “hz515H7VH1D76NVL2” for “c515H7”
as §2, §4

[5] = biological target: T2, humanized antibody Hz515H7 VH1 D76N VL2; assay: SPR (Biacore X): h-FcγRIIIA injected over hz515H7VH1D76NVL2 Mab immobilized on a CM4 sensorchip; Langmuir model
Experimental: as §1, with “1964” for “2017”, “hz515H7VH1D76NVL2” for “c515H7”
as §2
After each injection of the analyte, the sensorchip was regenerated by injection of either 20 mM NaOH solution after h-FcγRI and m-FcγRIII or 10 mM NaOH after h-FcγRIIIA and m-FcγRI.

chimeric antibody c515H7 [6] = biological target: T1, chimeric antibody c515H7; assay: SPR (Biacore X): h-FcγRIIIA injected over c515H7 Mab immobilized on a CM4 sensorchip; heterogeneous ligand model, minor component (19%)
Experimental: as §1, §2, §3

T2 sequence (heavy, as listed by the source, chain 1 of 2): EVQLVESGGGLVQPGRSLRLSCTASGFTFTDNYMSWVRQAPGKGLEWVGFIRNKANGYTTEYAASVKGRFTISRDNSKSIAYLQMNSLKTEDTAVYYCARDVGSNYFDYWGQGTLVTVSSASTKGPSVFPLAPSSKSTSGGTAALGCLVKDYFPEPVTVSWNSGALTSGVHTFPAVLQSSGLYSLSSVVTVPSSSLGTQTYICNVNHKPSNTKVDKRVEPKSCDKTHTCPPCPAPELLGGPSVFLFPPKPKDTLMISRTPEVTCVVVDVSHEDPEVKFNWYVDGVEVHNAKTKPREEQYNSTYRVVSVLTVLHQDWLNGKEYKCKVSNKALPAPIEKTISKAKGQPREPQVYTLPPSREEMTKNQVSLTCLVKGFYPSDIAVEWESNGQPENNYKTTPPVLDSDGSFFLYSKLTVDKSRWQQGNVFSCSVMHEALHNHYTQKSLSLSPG
T2 sequence (light, as listed by the source, chain 2 of 2): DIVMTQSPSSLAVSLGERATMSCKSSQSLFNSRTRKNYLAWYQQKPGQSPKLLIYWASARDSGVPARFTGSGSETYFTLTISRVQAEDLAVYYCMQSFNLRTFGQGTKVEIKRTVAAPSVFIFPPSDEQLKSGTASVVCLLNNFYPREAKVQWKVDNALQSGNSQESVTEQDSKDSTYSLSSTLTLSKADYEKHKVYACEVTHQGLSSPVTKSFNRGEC
T1 sequence (heavy, as listed by the source, chain 1 of 2): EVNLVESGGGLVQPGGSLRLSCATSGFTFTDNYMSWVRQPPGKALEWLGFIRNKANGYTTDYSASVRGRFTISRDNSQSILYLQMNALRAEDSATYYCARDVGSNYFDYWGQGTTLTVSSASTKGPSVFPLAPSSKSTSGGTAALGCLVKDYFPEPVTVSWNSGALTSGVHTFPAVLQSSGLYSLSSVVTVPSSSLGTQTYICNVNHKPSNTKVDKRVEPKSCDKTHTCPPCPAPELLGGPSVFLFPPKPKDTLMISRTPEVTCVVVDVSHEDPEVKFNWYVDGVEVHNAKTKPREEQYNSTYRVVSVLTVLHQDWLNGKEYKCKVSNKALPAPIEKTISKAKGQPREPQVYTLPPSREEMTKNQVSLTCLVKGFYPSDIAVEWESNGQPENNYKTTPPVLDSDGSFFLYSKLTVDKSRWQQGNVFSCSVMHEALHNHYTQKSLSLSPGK
T1 sequence (light, as listed by the source, chain 2 of 2): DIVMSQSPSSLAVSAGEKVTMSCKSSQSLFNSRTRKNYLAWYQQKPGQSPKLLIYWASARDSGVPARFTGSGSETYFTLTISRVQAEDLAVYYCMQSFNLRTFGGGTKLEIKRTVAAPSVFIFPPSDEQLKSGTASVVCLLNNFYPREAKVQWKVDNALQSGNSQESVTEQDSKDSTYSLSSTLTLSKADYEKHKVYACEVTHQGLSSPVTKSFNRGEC

- t1/2 (chimeric antibody c515H7 [1]): 3.6 s
- t1/2 [2]: 45 s
- t1/2 (chimeric antibody c515H7 [3]): 26.4 s
- t1/2 [4]: 3.6 s
- t1/2 [5]: 19.8 s
- t1/2 (chimeric antibody c515H7 [6]): 55.8 s
B1: Recombinant human FcγRIIIA variant V [CD16a], […] with C-terminal 6-His tag (receptor)
chain: not shown
notes: range […]; 'variant V' is given without a position, so no substitution is written; also called h-FcγRIIIA
